In the RNAGym collection of RNA variant scans (doi:10.1093/nar/gkz1192) one finds self-cleavage data, which are given here for 34 variants.

First the molecules themselves.
B1: CPEB3 Ribozyme (parent)
chain: UAACAGGGGGCCACAGCAGAAGCGUUCACGUCGCAGCCCCUGUCAGAUUCUGGUGAAUCUGCGAAUUCUGCUGUAUAUCUC

The source gives no read counts; variants with many changes may rest on few reads.

In this data set the parent is B1. The data set can be described thus: self-cleavage, relative activity (ratio to wild type); higher = more cleavage; in vitro, sequencing. The procedure, abridged:
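Barcoded CPEB3 ribozyme mutants, produced by rounds of error-prone PCR, self-cleaved while being transcribed with T7 RNA polymerase for 5 hours at 37°C and during a subsequent 15 min DNase I step before EDTA was added. Sequencing of template-switched cDNA on Illumina gave cleaved and total reads, and DNA sequencing assigned barcodes to variants. Each variant's relative activity is its cleaved/total read fraction divided by the unmutated ribozyme's fraction, averaged across three batches. A variant needed a minimum of 5 reads.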
Regarding UAACAGGGGGCCACAGCAGAAGCGUUCACGUCGCAGCCCCUGUCUGACUCUGGUGACCCUGCGAAUCCCGCUGUAUAUCUC [A45U U48C A57C U58C U67C U69C], the self-cleavage was found to be 0.06.
The same measure for UAACAGGGGGCCACAGCAGAAGCGUUCACGUCGCAGCCCCUGUCUGGUUCUGGUGAAUCUGCGAAUUCUGCUGUAUAUCAC [A45U A47G U80A]: 0.32; for UAACAGGGGGCCACAGCAGAAGCGUUCACGUCGCAGCCCCUGUCUGAUUCUGGUGGAUCUGCGAAUUCUGCAGUAUAUCUC [A45U A56G U72A]: 0.18; for UAACAGGGGGCCACAGCAGAAGCGUUCACGUCGCAGCCCCUGUCUGUCUCUGGUGAAUCUGCGAAUUCUGCUGUAUAUCUC [A45U A47U U48C]: 0.16.
Next, UAACAGGGGGCCACAGCAGAAGCGUUCACGUCGCAGCCCCUGUCUGGUUCAGGUGAAUCUGCGAAUUCUGCUGCAUAUCUC [A45U A47G U51A U74C]: 0.32.
Regarding UAACAGGGGGCCACAGCAGAAGCGUUCACGUCGCAGCCCCUGUCUGAUUCUGGUGGAUCUGCGAAUUCUGCUGUAUAACCC [A45U A56G U78A U80C], the self-cleavage stood at 0.31.
Take UAACAGGGGGCCACAGCAGAAGCGUUCACGUCGCAGCCCCUGUCGGAUUCUGGUGAAUCUGCGAAUUCAGCAGUAUACCUC [A45G U69A U72A U78C]: the self-cleavage was 0.35.
For UAACAGGGGGCCACAGCAGAAGCGUUCACGUCGCAGCCCCUGUCUGAUUCUGAUGAAUCCGCGAAUUCUGCUGUAUAUCUC [A45U G53A U60C], the self-cleavage was found to be 0.74.
Regarding UAACAGGGGGCCACAGCAGAAGCGUUCACGUCGCAGCCCCUGUCGGAUUCUGGUGAAUCCGCGAAUUCUGCUGUAUACCUC [A45G U60C U78C], the self-cleavage was found to be 1.15.
Turning to UAACAGGGGGCCACAGCAGAAGCGUUCACGUCGCAGCCCCUGUCGGAUUCUGGUGAAUCUGCGAAUUCUGCUGUAUACCAA [A45G U78C U80A C81A], the self-cleavage was found to be 1.17.
Consider UAACAGGGGGCCACAGCAGAAGCGUUCACGUCGCAGCCCCUGUCGGAUUCUGGUGAAUCUGCGAAUCCCGCCGUGUAUCUC [A45G U67C U69C U72C A75G], for which the self-cleavage came out at 0.21.
The same measure for UAACAGGGGGCCACAGCAGAAGCGUUCACGUCGCAGCCCCUGUCGGAUUCUGGUGAAUCUGCGAACUCUGCUGUAUAUCCC [A45G U66C U80C]: 0.44.
Turning to UAACAGGGGGCCACAGCAGAAGCGUUCACGUCGCAGCCCCUGUCGGAUUCUGGUGAAUCAGCGAAUUCUGCUGCUUAUCUC [A45G U60A U74C A75U], the self-cleavage turned out to be 1.07.
On to UAACAGGGGGCCACAGCAGAAGCGUUCACGUCGCAGCCCCUGUCUGAUUCUGGUGUAUCUGCGAGUUCUGCUGUAUAUCUC [A45U A56U A65G], for which the self-cleavage was determined as 0.14.
For the variant UAACAGGGGGCCACAGCAGAAGCGUUCACGUCGCAGCCCCUGUCUGAUUCUGGUGAAUCUGCGAUUUAUGCUGUAUAUCUC [A45U A65U C68A], the self-cleavage was determined as 0.38.
Turning to UAACAGGGGGCCACAGCAGAAGCGUUCACGUCGCAGCCCCUGUCGGAUUCUGGUGAAUCCGCGAAUUCUGCAGUACAUCUC [A45G U60C U72A U76C], the self-cleavage stood at 1.29.
Turning to UAACAGGGGGCCACAGCAGAAGCGUUCACGUCGCAGCCCCUGUCUGAUUCUGGUGUAUCUGCGUAUUCUGCUGUAUAUCUC [A45U A56U A64U], the self-cleavage worked out at 0.21.
On to UAACAGGGGGCCACAGCAGAAGCGUUCACGUCGCAGCCCCUGUCUGAUUCUGGUGAGUCUGCGAAUUCUGCUGUACAUCUC [A45U A57G U76C], for which the self-cleavage came to 0.4.
UAACAGGGGGCCACAGCAGAAGCGUUCACGUCGCAGCCCCUGUCUGAUUCUGGUGAGUCUGCGAAUUCUGCUGUAAAUCUC [A45U A57G U76A]: the self-cleavage was 0.22.
Regarding UAACAGGGGGCCACAGCAGAAGCGUUCACGUCGCAGCCCCUGUCUGAUUCUGGUGAGUCUGCUAUUUCCGCUGUAUAUCUC [A45U A57G G63U A65U U69C], the self-cleavage was determined as 0.1.
As for UAACAGGGGGCCACAGCAGAAGCGUUCACGUCGCAGCCCCUGUCUGAUUCUGGUGGAUCAGCGAAUUCUGCUGUAUAUCUC [A45U A56G U60A], the self-cleavage is 0.91.
Take UAACAGGGGGCCACAGCAGAAGCGUUCACGUCGCAGCCCCUGUCUGAUUCUGGUGAAUCUGCGAAUUUUGCUGUUUAUCCC [A45U C68U A75U U80C]: the self-cleavage is 0.19.
The same measure for UAACAGGGGGCCACAGCAGAAGCGUUCACGUCGCAGCCCCUGUCUGAUUCUGGUGAAUCUGCGAAUUCUGCUCUGUAUCUC [A45U G73C A75G]: 0.78; for UAACAGGGGGCCACAGCAGAAGCGUUCACGUCGCAGCCCCUGUCGGAUUCUGGUGAAUCUGCGAAUCCUGCUGUAUACCUC [A45G U67C U78C]: 0.31; for UAACAGGGGGCCACAGCAGAAGCGUUCACGUCGCAGCCCCUGUCUGGCUCUGGGGAAUCUGCGAAUUCUGCUGUAUAUCUC [A45U A47G U48C U54G]: 0.34.
The same measure for UAACAGGGGGCCACAGCAGAAGCGUUCACGUCGCAGCCCCUGUCUGAUUCUUGUGAAUCUGCGAAUUCUGCUGUAUGUCUC [A45U G52U A77G]: 0.51; for UAACAGGGGGCCACAGCAGAAGCGUUCACGUCGCAGCCCCUGUCUGAUUCUCGUGAAUCUGCGAAUACUGCUGUAUAUCUC [A45U G52C U67A]: 0.2.
In the case of UAACAGGGGGCCACAGCAGAAGCGUUCACGUCGCAGCCCCUGUCUGAUUCUGGUGAAUCUGCGAGUUCUGCUGUAUAUAUC [A45U A65G C79A], the self-cleavage is 0.11.
Next, UAACAGGGGGCCACAGCAGAAGCGUUCACGUCGCAGCCCCUGUCUGAAACUGGUGAAUCCGCGAAUUCCGCUGUAUAUCUC [A45U U48A U49A U60C U69C]: 0.2.
Next, UAACAGGGGGCCACAGCAGAAGCGUUCACGUCGCAGCCCCUGUCUGGUUCUGGCGAAUCUGCGAAUUCUGCUGUAUAUCUC [A45U A47G U54C]: 0.34; UAACAGGGGGCCACAGCAGAAGCGUUCACGUCGCAGCCCCUGUCGGAUUCUGGUGAAUCUGCGAAUUCUGCCGUAUUUCUC [A45G U72C A77U]: 0.98.
As for UAACAGGGGGCCACAGCAGAAGCGUUCACGUCGCAGCCCCUGUCUGAUUCUGGUGUAUCUGCGAAUUCUGCUGUAUAUCGC [A45U A56U U80G], the self-cleavage is 0.03.
For the variant UAACAGGGGGCCACAGCAGAAGCGUUCACGUCGCAGCCCCUGUCUGAUUCUGGUGUAUCUGCGAAUUCUGCUGUAUAUCCC [A45U A56U U80C], the self-cleavage turned out to be 0.16.
Regarding UAACAGGGGGCCACAGCAGAAGCGUUCACGUCGCAGCCCCUGUCUGAUUCUGGUGAGUCUGGGAAUUCUGCUGUAUAUCUC [A45U A57G C62G], the self-cleavage was determined as 0.23.
